# Results: the supplement of paper PMC8728848
# This is one part of the list.
# What was measured:
# Experiment in all cases: glycan array binding signal (z-score within array); higher = stronger binding
# Settings in all cases: glycan notation: IUPAC condensed, linker removed
# [1] = biological target: Neu5Ac(a2-3)Gal(b1-4)GlcNAc(b1-6)GalNAc
# Procedure, shortened: (§1)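 Glycan array binding is given as a within-array Z-score, which can be read as non-binding when negative. The arrays, 3228 of them, came from the Consortium for Functional Glycomics database and were retained only where the protein sequence was available. Z-scores were averaged across arrays of the same protein sequence at different concentrations or buffers and across linkers.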
# [2] = biological target: Neu5Ac(a2-3)Gal(b1-4)GlcNAc(b1-6)[Gal(b1-3)]GalNAc
# Procedure, shortened: as §1
# [3] = biological target: Neu5Ac(a2-3)Gal(b1-4)GlcNAc(b1-6)[Neu5Ac(a2-3)Gal(b1-3)]GalNAc
# Procedure, shortened: as §1
# [4] = biological target: Neu5Ac(a2-3)Gal(b1-4)GlcNAc6S
# Procedure, shortened: as §1
# [5] = biological target: Neu5Ac(a2-3)Gal(b1-4)[Fuc(a1-3)]GlcNAc
# Procedure, shortened: as §1
# [6] = biological target: Neu5Ac(a2-3)Gal(b1-4)[Fuc(a1-3)]GlcNAc(b1-3)Gal
# Procedure, shortened: as §1
# [7] = biological target: Neu5Ac(a2-3)Gal(b1-4)[Fuc(a1-3)]GlcNAc(b1-3)Gal(b1-4)GlcNAc
# Procedure, shortened: as §1
# [8] = biological target: Neu5Ac(a2-3)Gal(b1-4)[Fuc(a1-3)]GlcNAc(b1-3)Gal(b1-4)[Fuc(a1-3)]GlcNAc(b1-3)Gal(b1-4)[Fuc(a1-3)]GlcNAc
# Procedure, shortened: as §1
# [9] = biological target: Neu5Ac(a2-3)Gal(b1-4)[Fuc(a1-3)]GlcNAc(b1-3)GalNAc
# Procedure, shortened: as §1
# [10] = biological target: Neu5Ac(a2-3)Gal(b1-4)[Fuc(a1-3)]GlcNAc(b1-6)[Gal(b1-3)]GalNAc
# Procedure, shortened: as §1
# [11] = biological target: Neu5Ac(a2-3)Gal(b1-4)[Fuc(a1-3)]GlcNAc6S
# Procedure, shortened: as §1
# [12] = biological target: Neu5Ac(a2-3)Gal6S(b1-4)GlcNAc
# Procedure, shortened: as §1
# [13] = biological target: Neu5Ac(a2-3)Gal6S(b1-4)[Fuc(a1-3)]GlcNAc
# Procedure, shortened: as §1
# Neu5Ac(a2-3)GalNAc = biological target: Neu5Ac(a2-3)GalNAc
# Procedure, shortened: as §1
# [14] = biological target: Neu5Ac(a2-3)GalNAc(b1-4)GlcNAc
# Procedure, shortened: as §1
# [15] = biological target: Neu5Ac(a2-3)[GalNAc(b1-4)]Gal(b1-4)Glc
# Procedure, shortened: as §1
# [16] = biological target: Neu5Ac(a2-3)[GalNAc(b1-4)]Gal(b1-4)GlcNAc
# Procedure, shortened: as §1
# [17] = biological target: Neu5Ac(a2-3)[GalNAc(b1-4)]Gal(b1-4)GlcNAc(b1-3)GalNAc
# Procedure, shortened: as §1
# [18] = biological target: Neu5Ac(a2-3)[Neu5Ac(a2-6)]GalNAc
# Procedure, shortened: as §1
# Neu5Ac(a2-6)Gal = biological target: Neu5Ac(a2-6)Gal
# Procedure, shortened: as §1
# [19] = biological target: Neu5Ac(a2-6)Gal(b1-3)GlcNAc(b1-3)[Gal(b1-4)GlcNAc(b1-6)]Gal(b1-4)Glc
# Procedure, shortened: as §1
# Neu5Ac(a2-6)Gal(b1-4)Glc = biological target: Neu5Ac(a2-6)Gal(b1-4)Glc
# Procedure, shortened: as §1
# [20] = biological target: Neu5Ac(a2-6)Gal(b1-4)GlcNAc
# Procedure, shortened: as §1
# [21] = biological target: Neu5Ac(a2-6)Gal(b1-4)GlcNAc(b1-2)Man(a1-3)Man(b1-4)GlcNAc(b1-4)GlcNAc
# Procedure, shortened: as §1
# [22] = biological target: Neu5Ac(a2-6)Gal(b1-4)GlcNAc(b1-2)Man(a1-3)[Gal(b1-4)GlcNAc(b1-2)Man(a1-6)]Man(b1-4)GlcNAc(b1-4)GlcNAc
# Procedure, shortened: as §1
# [23] = biological target: Neu5Ac(a2-6)Gal(b1-4)GlcNAc(b1-2)Man(a1-3)[GlcNAc(b1-2)Man(a1-6)]Man(b1-4)GlcNAc(b1-4)GlcNAc
# Procedure, shortened: as §1
# [24] = biological target: Neu5Ac(a2-6)Gal(b1-4)GlcNAc(b1-2)Man(a1-3)[GlcNAc(b1-2)Man(b1-4)GlcNAc(b1-2)Man(a1-6)]Man(b1-4)GlcNAc(b1-4)GlcNAc
# Procedure, shortened: as §1
# [25] = biological target: Neu5Ac(a2-6)Gal(b1-4)GlcNAc(b1-2)Man(a1-3)[Man(a1-6)]Man(b1-4)GlcNAc(b1-4)GlcNAc
# Procedure, shortened: as §1
# [26] = biological target: Neu5Ac(a2-6)Gal(b1-4)GlcNAc(b1-2)Man(a1-3)[Neu5Ac(a2-6)Gal(b1-4)GlcNAc(b1-2)Man(a1-6)]Man(b1-4)GlcNAc(b1-4)GlcNAc
# Procedure, shortened: as §1
# [27] = biological target: Neu5Ac(a2-6)Gal(b1-4)GlcNAc(b1-2)Man(a1-3)[Neu5Ac(a2-6)Gal(b1-4)GlcNAc(b1-2)Man(a1-6)]Man(b1-4)GlcNAc(b1-4)[Fuc(a1-6)]GlcNAc
# Procedure, shortened: as §1
# [28] = biological target: Neu5Ac(a2-6)Gal(b1-4)GlcNAc(b1-2)Man(a1-6)Man(b1-4)GlcNAc(b1-4)GlcNAc
# Procedure, shortened: as §1
# [29] = biological target: Neu5Ac(a2-6)Gal(b1-4)GlcNAc(b1-2)Man(a1-6)[Gal(b1-4)GlcNAc(b1-2)Man(a1-3)]Man(b1-4)GlcNAc(b1-4)GlcNAc
# Procedure, shortened: as §1
# [30] = biological target: Neu5Ac(a2-6)Gal(b1-4)GlcNAc(b1-2)Man(a1-6)[GlcNAc(b1-2)Man(a1-3)]Man(b1-4)GlcNAc(b1-4)GlcNAc
# Procedure, shortened: as §1
# [31] = biological target: Neu5Ac(a2-6)Gal(b1-4)GlcNAc(b1-2)Man(a1-6)[Man(a1-3)]Man(b1-4)GlcNAc(b1-4)GlcNAc
# Procedure, shortened: as §1
# [32] = biological target: Neu5Ac(a2-6)Gal(b1-4)GlcNAc(b1-3)Gal(b1-3)GlcNAc
# Procedure, shortened: as §1
# [33] = biological target: Neu5Ac(a2-6)Gal(b1-4)GlcNAc(b1-3)Gal(b1-4)GlcNAc
# Procedure, shortened: as §1
# [34] = biological target: Neu5Ac(a2-6)Gal(b1-4)GlcNAc(b1-3)Gal(b1-4)GlcNAc(b1-3)Gal(b1-4)GlcNAc
# Procedure, shortened: as §1
# [35] = biological target: Neu5Ac(a2-6)Gal(b1-4)GlcNAc(b1-3)Gal(b1-4)[Fuc(a1-3)]GlcNAc(b1-3)Gal(b1-4)[Fuc(a1-3)]GlcNAc
# Procedure, shortened: as §1
# [36] = biological target: Neu5Ac(a2-6)Gal(b1-4)GlcNAc(b1-3)GalNAc
# Procedure, shortened: as §1
# [37] = biological target: Neu5Ac(a2-6)Gal(b1-4)GlcNAc(b1-3)[Neu5Ac(a2-6)Gal(b1-4)GlcNAc(b1-6)]GalNAc
# Procedure, shortened: as §1
# [38] = biological target: Neu5Ac(a2-6)Gal(b1-4)GlcNAc(b1-6)GalNAc
# Procedure, shortened: as §1
# [39] = biological target: Neu5Ac(a2-6)Gal(b1-4)GlcNAc(b1-6)[Gal(b1-3)GlcNAc(b1-3)]Gal(b1-4)Glc
# Procedure, shortened: as §1
# [40] = biological target: Neu5Ac(a2-6)Gal(b1-4)GlcNAc6S
# Procedure, shortened: as §1
# Neu5Ac(a2-6)GalNAc = biological target: Neu5Ac(a2-6)GalNAc
# Procedure, shortened: as §1
# [41] = biological target: Neu5Ac(a2-6)GalNAc(b1-4)GlcNAc
# Procedure, shortened: as §1
binder,measurement,setting,value
Morniga (Morus nigra) (protein) MAGTSTNTQTTGTSQTVEVGLWGGPGGNAWDDGSYTGIREINLSHGDAIGAFSVIYDLNGQPFTGPTHPGNEPSFKTVKITLDFPNEFLVSVSGYTGVLPRLATGKDVIRSLTFKTNKKTYGPYGKEEGTPFSLPIENGLIVGFKGRSGFVVDAIGVHLS,glycan array binding signal (z-score),[1],-0.326
same,glycan array binding signal (z-score),[2],-0.337
same,glycan array binding signal (z-score),[3],-0.334
same,glycan array binding signal (z-score),[4],-0.34
same,glycan array binding signal (z-score),[5],-0.337
same,glycan array binding signal (z-score),[6],-0.332
same,glycan array binding signal (z-score),[7],-0.326
same,glycan array binding signal (z-score),[8],-0.323
same,glycan array binding signal (z-score),[9],-0.272
same,glycan array binding signal (z-score),[10],-0.287
same,glycan array binding signal (z-score),[11],-0.341
same,glycan array binding signal (z-score),[12],-0.343
same,glycan array binding signal (z-score),[13],-0.335
same,glycan array binding signal (z-score),Neu5Ac(a2-3)GalNAc,-0.339
same,glycan array binding signal (z-score),[14],-0.344
same,glycan array binding signal (z-score),[15],-0.339
same,glycan array binding signal (z-score),[16],-0.338
same,glycan array binding signal (z-score),[17],-0.332
same,glycan array binding signal (z-score),[18],-0.331
same,glycan array binding signal (z-score),Neu5Ac(a2-6)Gal,-0.339
same,glycan array binding signal (z-score),[19],-0.341
same,glycan array binding signal (z-score),Neu5Ac(a2-6)Gal(b1-4)Glc,-0.34
same,glycan array binding signal (z-score),[20],-0.334
same,glycan array binding signal (z-score),[21],3.66
same,glycan array binding signal (z-score),[22],3.11
same,glycan array binding signal (z-score),[23],2.92
same,glycan array binding signal (z-score),[24],3.36
same,glycan array binding signal (z-score),[25],3.23
same,glycan array binding signal (z-score),[26],3.25
same,glycan array binding signal (z-score),[27],1.41
same,glycan array binding signal (z-score),[28],-0.33
same,glycan array binding signal (z-score),[29],3.24
same,glycan array binding signal (z-score),[30],2.98
same,glycan array binding signal (z-score),[31],4.66
same,glycan array binding signal (z-score),[32],-0.336
same,glycan array binding signal (z-score),[33],-0.341
same,glycan array binding signal (z-score),[34],-0.344
same,glycan array binding signal (z-score),[35],-0.323
same,glycan array binding signal (z-score),[36],-0.324
same,glycan array binding signal (z-score),[37],-0.336
same,glycan array binding signal (z-score),[38],-0.326
same,glycan array binding signal (z-score),[39],-0.344
same,glycan array binding signal (z-score),[40],-0.338
same,glycan array binding signal (z-score),Neu5Ac(a2-6)GalNAc,-0.339
same,glycan array binding signal (z-score),[41],-0.34
